From patent publication US20200306373A1 (Hoffmann-La Roche, published 2020)

Molecular target: T1, murine ICOS (murine, UniProt Q9WVS0 21-200)
T1 construct: in the splenocyte assays the endogenous protein on murine T cells; also called mICOS
T1 sequence: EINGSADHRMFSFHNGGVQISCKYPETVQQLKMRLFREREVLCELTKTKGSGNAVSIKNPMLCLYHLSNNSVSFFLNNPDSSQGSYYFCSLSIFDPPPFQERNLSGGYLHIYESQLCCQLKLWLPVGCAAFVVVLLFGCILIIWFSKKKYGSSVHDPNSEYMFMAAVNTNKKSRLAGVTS
Assay: flow cytometry on CHO-K1 transfectants expressing murine ICOS
Procedure: The staining was fixed for 20 min at 4° C. in the dark, using 75 μl of 1% PFA in FACS buffer per well. Fluorescence was analyzed by FACS using a FACS Fortessa (Software FACS Diva). Binding curves were obtained using GraphPadPrism6 and are shown in FIGS. 6A-6C and 7A-7B, respectively.

B1: Untargeted mICOSL, mIgG1 DAPG, bivalent murine ICOSL (Gly47-Lys279), monovalent untargeted moiety c-terminal fused of the heavy chain C region (Fc fusion)
chain 1: ETEVGAMVGSNVVLSCIDPHRRHFNLSGLYVYWQIENPEVSVTYYLPYKSPGINVDSSYKNRGHLSLDSMKQGNFSLYLKNVTPQDTQEFTCRVFMNTATELVKILEEVVRLRVAANFSTPVISTSDSSNPGQERTYTCMSKNGYPEPNLYWINTTDNSLIDTALQNNTVYLNKLGLYDVISTLRLPWTSRGDVLCCVENVALHQNITSISQAESFTGNNTKNPQETHNNELKGSPGSSSSSGSAGSPGSSSSSGSADGCKPCICTVPEVSSVFIFPPKPKDVLTITLTPKVTCVVVAISKDDPEVQFSWFVDDVEVHTAQTKPREEQINSTFRSVSELPIMHQDWLNGKEFKCRVNSAAFGAPIEKTISKTKGRPKAPQVYTIPPPKKQMAKDKVSLTCMITNFFPEDITVEWQWNGQPAENYKNTQPIMKTDGSYFVYSKLNVQKSNWEAGNTFTCSVLHEGLHNHHTEKSLSHSPGGGGGSGGGGSGGGGSGGGGS[about 100 residues cut from this listing]
chain 2: ETEVGAMVGSNVVLSCIDPHRRHFNLSGLYVYWQIENPEVSVTYYLPYKSPGINVDSSYKNRGHLSLDSMKQGNFSLYLKNVTPQDTQEFTCRVFMNTATELVKILEEVVRLRVAANFSTPVISTSDSSNPGQERTYTCMSKNGYPEPNLYWINTTDNSLIDTALQNNTVYLNKLGLYDVISTLRLPWTSRGDVLCCVENVALHQNITSISQAESFTGNNTKNPQETHNNELKGSPGSSSSSGSAGSPGSSSSSGSADGCKPCICTVPEVSSVFIFPPKPKDVLTITLTPKVTCVVVAISKDDPEVQFSWFVDDVEVHTAQTKPREEQINSTFRSVSELPIMHQDWLNGKEFKCRVNSAAFGAPIEKTISKTKGRPKAPQVYTIPPPKEQMAKDKVSLTCMITNFFPEDITVEWQWNGQPAENYDNTQPIMDTDGSYFVYSDLNVQKSNWEAGNTFTCSVLHEGLHNHHTEKSLSHSPGGGGGSGGGGSGGGGSGGGGS[about 100 residues cut from this listing]GSGFDYWGQGTLVTVSS
notes: also called DP47-mICOS-L; DP47-mFAP-L
Work on B1 yielded an EC50 of 23.6 nM.
